Assay results from PMC2970546.
Results are given in words; binding and its absence hold for the method and conditions named.

Legend:
Assay in all cases: two-hybrid; LexA-septin bait (modified pBTM116) in yeast L40 screened against human fetal brain and human leukocyte cDNA libraries (pACT2); minimal medium without Trp, Leu, His, with 5 mM 3-AT; every clone confirmed one-to-one with its bait by beta-galactosidase filter assay, empty bait vector as control
Conditions in all cases: remark: other sources report otherwise
[1] = target: T1, human septin 8 (human), Q92599
T1 chain: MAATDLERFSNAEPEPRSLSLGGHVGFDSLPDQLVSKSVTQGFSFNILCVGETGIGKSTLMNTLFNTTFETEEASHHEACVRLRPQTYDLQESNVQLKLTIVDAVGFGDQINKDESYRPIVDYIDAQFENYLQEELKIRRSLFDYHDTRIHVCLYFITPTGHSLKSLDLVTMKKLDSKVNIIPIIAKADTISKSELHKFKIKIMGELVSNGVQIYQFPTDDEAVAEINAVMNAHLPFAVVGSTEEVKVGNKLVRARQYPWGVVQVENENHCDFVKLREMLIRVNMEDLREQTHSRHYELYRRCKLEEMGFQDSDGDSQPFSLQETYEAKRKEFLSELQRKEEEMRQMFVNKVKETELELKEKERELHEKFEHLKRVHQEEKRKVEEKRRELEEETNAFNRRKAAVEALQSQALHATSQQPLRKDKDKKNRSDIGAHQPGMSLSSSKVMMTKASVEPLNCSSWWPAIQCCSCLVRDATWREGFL

[2] = target: T2, human septin 6 (human), Q14141
T2 chain: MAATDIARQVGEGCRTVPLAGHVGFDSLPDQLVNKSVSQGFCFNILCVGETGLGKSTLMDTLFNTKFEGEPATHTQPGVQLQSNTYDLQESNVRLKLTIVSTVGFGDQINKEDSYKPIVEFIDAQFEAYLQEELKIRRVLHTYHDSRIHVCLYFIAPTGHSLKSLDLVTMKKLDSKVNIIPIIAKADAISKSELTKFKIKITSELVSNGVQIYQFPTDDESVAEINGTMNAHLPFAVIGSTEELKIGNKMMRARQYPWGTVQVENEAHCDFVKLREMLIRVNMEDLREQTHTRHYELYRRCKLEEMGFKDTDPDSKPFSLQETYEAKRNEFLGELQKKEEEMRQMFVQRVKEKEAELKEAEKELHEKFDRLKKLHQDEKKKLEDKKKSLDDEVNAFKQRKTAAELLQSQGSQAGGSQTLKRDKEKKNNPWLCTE

[3] = target: T3, human septin 10 (human), Q9P0V9
T3 chain: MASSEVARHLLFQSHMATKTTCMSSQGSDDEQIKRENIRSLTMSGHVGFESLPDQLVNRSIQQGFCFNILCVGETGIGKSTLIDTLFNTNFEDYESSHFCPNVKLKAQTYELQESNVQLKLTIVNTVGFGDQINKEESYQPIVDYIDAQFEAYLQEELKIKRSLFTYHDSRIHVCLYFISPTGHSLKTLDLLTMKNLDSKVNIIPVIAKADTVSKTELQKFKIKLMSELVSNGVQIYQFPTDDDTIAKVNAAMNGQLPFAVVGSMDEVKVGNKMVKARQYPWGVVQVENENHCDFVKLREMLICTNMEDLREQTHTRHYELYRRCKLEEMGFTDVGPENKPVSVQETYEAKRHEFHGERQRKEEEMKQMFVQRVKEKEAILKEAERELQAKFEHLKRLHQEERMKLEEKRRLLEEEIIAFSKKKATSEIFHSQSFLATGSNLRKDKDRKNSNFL

[4] = target: T4, human septin 2 (human), Q15019
T4 chain: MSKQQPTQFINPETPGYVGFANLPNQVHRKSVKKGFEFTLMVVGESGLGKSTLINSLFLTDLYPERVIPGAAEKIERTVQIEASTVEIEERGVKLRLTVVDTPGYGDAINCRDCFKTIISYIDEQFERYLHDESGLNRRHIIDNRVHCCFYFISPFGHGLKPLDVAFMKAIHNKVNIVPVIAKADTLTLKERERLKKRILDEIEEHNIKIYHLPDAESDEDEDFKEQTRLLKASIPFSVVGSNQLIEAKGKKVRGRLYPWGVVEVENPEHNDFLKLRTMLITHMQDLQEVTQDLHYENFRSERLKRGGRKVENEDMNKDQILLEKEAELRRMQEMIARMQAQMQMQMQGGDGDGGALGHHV

[5] = target: T5, human septin 7 (human), Q16181
T5 chain: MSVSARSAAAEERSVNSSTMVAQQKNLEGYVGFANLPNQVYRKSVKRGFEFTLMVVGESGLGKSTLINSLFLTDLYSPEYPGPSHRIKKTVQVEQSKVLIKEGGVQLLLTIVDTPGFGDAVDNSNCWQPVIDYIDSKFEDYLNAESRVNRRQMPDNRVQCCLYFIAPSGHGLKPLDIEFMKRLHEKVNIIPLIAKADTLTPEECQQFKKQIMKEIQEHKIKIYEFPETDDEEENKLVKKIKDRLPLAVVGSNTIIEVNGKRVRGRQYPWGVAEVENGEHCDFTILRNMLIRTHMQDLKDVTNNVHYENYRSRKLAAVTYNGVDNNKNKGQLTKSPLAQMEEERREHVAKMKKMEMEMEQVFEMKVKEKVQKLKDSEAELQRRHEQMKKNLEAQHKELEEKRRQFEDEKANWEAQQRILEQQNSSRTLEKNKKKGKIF

[6] = target: T6, human septin 9, transcript variant 3, protein isoform c, full length (human), Q9UHD8
T6 chain: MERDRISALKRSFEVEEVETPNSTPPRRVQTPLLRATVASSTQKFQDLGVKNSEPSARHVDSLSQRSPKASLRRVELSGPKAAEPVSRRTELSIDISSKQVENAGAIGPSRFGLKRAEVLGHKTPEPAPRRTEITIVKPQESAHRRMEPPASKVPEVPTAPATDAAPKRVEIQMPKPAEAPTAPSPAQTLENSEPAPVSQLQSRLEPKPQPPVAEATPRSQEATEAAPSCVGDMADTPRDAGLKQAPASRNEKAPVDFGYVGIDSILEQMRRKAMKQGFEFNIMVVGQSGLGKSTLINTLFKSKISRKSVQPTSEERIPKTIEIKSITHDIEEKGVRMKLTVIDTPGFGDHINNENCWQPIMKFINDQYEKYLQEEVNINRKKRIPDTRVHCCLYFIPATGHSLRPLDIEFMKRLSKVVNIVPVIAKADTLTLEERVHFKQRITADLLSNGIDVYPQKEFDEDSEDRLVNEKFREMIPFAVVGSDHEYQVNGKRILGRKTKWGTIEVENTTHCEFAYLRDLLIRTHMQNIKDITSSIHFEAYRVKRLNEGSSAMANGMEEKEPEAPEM

B1: human septin 6, Q14141-1 1-434 (protein)
chain: T2 chain
Q: For B1, which binding [1] is on record?
A: no binding

Q: What about the binding [2] of the same binder?
A: no binding

Q: And the binding [3]?
A: no binding

B2: human septin 7, Q16181-1 1-437 (protein)
chain: T5 chain
Q: Which binding [4] does the source give for B2 here?
A: no binding

Q: What about the binding [5] of the same binder?
A: no binding

B3: human septin 9, transcript variant 3, protein isoform c, full length, Q9UHD8-2 1-568 (protein)
chain: T6 chain
Q: For B3, which binding [6] is on record?
A: no binding
